Assay results: publication PMC4336329 (PLoS ONE, 2015)
Among all 310,000 compounds or so, about 14,000 (4.5%) showed an effect of 50% or more. The effect is printed as a negative number. The list shows a part of the results.

target: human ether-à-go-go-related gene (hERG) potassium channel (human, UniProt Q12809); experiment: primary screen, population patch clamp on CHO cells stably expressing hERG
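Also: peak tail current of the secondary pulse compared with the same well before compound.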

Chain of human ether-à-go-go-related gene (hERG) potassium channel (Q12809 whole entry, looked up): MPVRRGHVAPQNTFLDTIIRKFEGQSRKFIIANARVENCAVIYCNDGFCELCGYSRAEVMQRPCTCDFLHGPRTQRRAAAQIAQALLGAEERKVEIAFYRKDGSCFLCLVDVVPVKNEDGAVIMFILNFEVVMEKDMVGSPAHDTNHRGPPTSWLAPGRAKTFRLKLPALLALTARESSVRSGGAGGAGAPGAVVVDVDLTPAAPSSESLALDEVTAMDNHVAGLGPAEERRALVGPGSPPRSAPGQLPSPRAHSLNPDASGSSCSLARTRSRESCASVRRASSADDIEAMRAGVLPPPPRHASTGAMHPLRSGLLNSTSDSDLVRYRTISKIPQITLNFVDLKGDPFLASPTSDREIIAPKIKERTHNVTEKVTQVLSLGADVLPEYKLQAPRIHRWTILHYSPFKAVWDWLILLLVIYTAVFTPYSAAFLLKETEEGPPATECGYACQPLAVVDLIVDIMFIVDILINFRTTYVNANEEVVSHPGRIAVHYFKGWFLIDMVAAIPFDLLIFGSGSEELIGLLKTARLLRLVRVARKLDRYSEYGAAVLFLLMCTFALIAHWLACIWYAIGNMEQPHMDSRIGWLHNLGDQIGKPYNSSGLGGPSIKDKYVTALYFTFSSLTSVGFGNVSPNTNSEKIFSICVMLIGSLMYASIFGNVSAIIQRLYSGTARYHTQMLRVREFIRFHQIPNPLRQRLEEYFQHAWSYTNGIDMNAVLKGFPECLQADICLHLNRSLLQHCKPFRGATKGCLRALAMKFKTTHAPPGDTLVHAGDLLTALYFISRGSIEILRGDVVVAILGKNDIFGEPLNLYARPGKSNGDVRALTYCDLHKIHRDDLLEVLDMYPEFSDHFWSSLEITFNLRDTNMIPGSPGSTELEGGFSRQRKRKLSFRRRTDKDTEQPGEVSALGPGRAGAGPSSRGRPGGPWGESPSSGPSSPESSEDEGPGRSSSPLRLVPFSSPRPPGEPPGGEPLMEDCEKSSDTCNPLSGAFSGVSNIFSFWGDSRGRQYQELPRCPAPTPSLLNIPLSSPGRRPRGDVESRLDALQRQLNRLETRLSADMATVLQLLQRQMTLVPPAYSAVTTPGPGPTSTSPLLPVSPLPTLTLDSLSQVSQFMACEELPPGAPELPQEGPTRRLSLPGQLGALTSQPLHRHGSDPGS

| Structure (SMILES) | hERG current change (%, negative = inhibition) at 10uM |
| --- | --- |
| COc1ccc(OC)c(NC(=O)/C=C/c2ccccc2[N+](=O)[O-])c1 | -15% |
| COc1ccc(N(CC(=O)Nc2cccc(F)c2)S(=O)(=O)c2c(C)[nH]c(=O)[nH]c2=O)cc1 | 22.8% |
| CCOC(=O)C1=C(C)C(c2ccccc2)NC(=S)N1 (stereo not shown) | -0.524% |
| C=CCn1c(SCC(=O)C(C)(C)C)nnc1-c1cccs1 | -14.3% |
| CCOC(=O)c1c(S(=O)(=O)Nc2ccccn2)c(C)n(C)c1C | 4.84% |
| CCN(CC)S(=O)(=O)c1ccc(N2CCOCC2)c(NC(=O)COc2ccccc2C)c1 | 8.22% |
| O=C(c1ccc(S(=O)(=O)N2CCCC2)cc1)N1CCCC(C(F)(F)F)C1 (stereo not shown) | -1.99% |
| Cc1ncsc1CCSc1n[nH]c(=O)n1-c1ccccc1 | 1.72% |
| Cc1cccc(NC(=S)NC(=O)CCc2ccccc2)c1 | -0.586% |
| O=C(CN1CCCC1)NCC(=O)Nc1ccc(F)cc1 | 8.87% |
| O=C(O)C(=O)O.c1cc2c(cc1CN1CCN(C3CCCCCC3)CC1)OCO2 | -30% |
| Cc1oc(CSCC2CCCO2)cc1C(=O)O (stereo not shown) | 3.13% |
| O=C(O)CCCCCCNC(=O)c1cncc(O)c1 | 17.3% |
| Cc1ccccc1CSc1nnc(C)n1N | -16.4% |
| CCOCCCNC(=O)Cn1cnc2c(cnn2-c2ccc(OC)cc2)c1=O | -14.5% |
| O=C(N/N=C/c1ccc(Br)s1)c1ccccn1 | -13% |
| CCn1c(SCC(=O)OC(C)C)nnc1-c1cccc(Cl)c1 | -13.6% |
| CCN(CCNC(=O)C1CCN(Cc2nc(-c3ccc(Cl)cc3)oc2C)CC1)c1ccccc1 | -65.9% |
| Cc1ccc(S(=O)(=O)N2CCCC(C(=O)NNCC(=O)Nc3cc(F)ccc3F)C2)cc1 (stereo not shown) | -41.7% |
| Cc1ccc(CSCC(=O)N(C)CC(=O)Nc2ccccc2C(F)(F)F)cc1 | -0.53% |
| Cn1nc(NC(=O)CC23CC4CC(CC(C4)C2)C3)c2c(F)cccc21 | 9.37% |
| CN1CCN(Cc2cccc(Oc3ccccc3)c2)CC1 | -28.2% |

| Structure (SMILES) | hERG current change (%, negative = inhibition) at 10uM |
| --- | --- |
| O=C(CSc1ncccn1)NC(=O)Nc1ccc2c(c1)OCCO2 | -6.64% |
| CC(C)c1cc(C(N)=O)c(NC(=O)C2CCC2)s1 | -14.7% |
| Cc1ccc(C)n1-c1ncn[nH]1 | 11% |
| CC(=O)N/N=C(\C)CC(=O)Nc1cccc2c1CCCC2 | 11% |
| Cc1cccc(N2CCN(Cc3nc(C4CC4)no3)CC2)n1 | -4.45% |
| COc1ccc(C(=O)NC(=S)N(C)C2CCCCC2)cc1 | 15.6% |
| N#C/C(=C\c1ccc(N2CCOCC2)o1)C(=O)NCCc1ccccc1 | -57.9% |
| Cn1c(SCCCC(=O)c2ccc(F)cc2)nnc1-c1ccncc1 | -59.6% |
| CCC(C)c1c(O)nc(SCC(=O)c2ccccc2)[nH]c1=O (stereo not shown) | 22.3% |
| COc1ccc(NS(=O)(=O)c2ccc(NC(=S)NC(=O)c3ccc(Br)cc3)cc2)nn1 | -6.77% |
| CC(=O)COc1ccc2c(-c3cccc([N+](=O)[O-])c3)cc(=O)oc2c1 | -25.9% |
| CC1CCN(C(=O)CSc2nc(=O)n3cc(Cl)ccc3n2)CC1 | -14.3% |
| COc1ncnc(OC)c1NC(=O)c1ccc(F)cc1 | 6.88% |
| COc1cccc(CN2CCN(C3CCN(c4cccc(C)c4C)CC3)CC2CCO)c1 (stereo not shown) | -66.2% |
| C/C(=N\NC(=O)c1cc(C)oc1C)c1ccc(C)c([N+](=O)[O-])c1 | 7.87% |
| COC(=O)C(Cc1ccccc1)NS(=O)(=O)c1ccc(F)cc1Br (stereo not shown) | -8.54% |
| COc1ccc(N(C(=O)/C=C/C(=O)Nc2cc(C)on2)C(C(=O)NC2CCCC2)c2ccccc2C)cc1 (stereo not shown) | -1.3% |
| CC(C(=O)N1CCOCC1)n1cc([N+](=O)[O-])cn1 (stereo not shown) | 15.9% |
| O=C(CSc1ccc2nnc(-c3ccccc3)n2n1)N1CCCc2ccccc21 | -62.7% |
| Cc1cc(Nc2ccccc2O)c2ccccc2n1.Cl | -18.6% |
| Cc1c(C(C)NC(=O)c2ccc3nc(Cc4ccccc4F)oc3c2)cnn1C (stereo not shown) | 12.2% |
| COc1cccc(NC(=O)c2ccc[n+](C)c2)c1.[I-] | 18.2% |

| Structure (SMILES) | hERG current change (%, negative = inhibition) at 10uM |
| --- | --- |
| O=C(OCC(=O)N1CCc2ccccc21)c1ccc[nH]c1=O | 15.9% |
| O=C(CCSc1ccccc1)NCC1CCCO1 (stereo not shown) | -1.67% |
| Cc1ccccc1N(CC(=O)Nc1ccc(S(=O)(=O)N2CCOCC2)cc1)S(C)(=O)=O | -4.47% |
| Cc1ccc(S(=O)(=O)/N=S(/c2ccccc2)C(C)C)cc1 (stereo not shown) | 14.3% |
| COc1ccc(-c2noc(C(=O)NCc3ccc(F)cc3)n2)cc1OC | -14.2% |
| CCOC(=O)c1c(C)nc2sc3c(c2c1-c1ccc(OC)cc1)NC(c1ccc(OC)cc1)NC3=O (stereo not shown) | 11.2% |
| COc1ccc(CC(=O)N2CC3(C)CC2CC(C)(C)C3)cc1OC (stereo not shown) | -20.2% |
| O=c1[nH]c2ccccc2cc1CN(Cc1ccco1)S(=O)(=O)c1ccccc1 | 11.5% |
| CCc1nnc(NC(=O)CCC(=O)Nc2ccc(OC)cc2OC)s1 | 21.9% |
| O=C(Nc1ccccc1)C1=C[C@@H](c2coc3ccccc3c2=O)C[C@@H](OCc2ccc(CO)cc2)O1 | -13.5% |
| CC1CC(C)CN(C(=O)c2ccc3nc[nH]c3c2)C1 (stereo not shown) | 4.05% |
| CCCCn1cc(C(=O)c2cc(Br)ccc2O)cc(C#N)c1=O | 10.5% |
| Fc1ccc(-c2cc(C(F)(F)F)n3ncnc3n2)cc1 | 26.8% |
| CCOC(=O)c1cc2c(=O)n3ccccc3nc2n(C)c1=NC(=O)c1c(-c2c(F)cccc2Cl)noc1C | 14% |
| COc1ccc(O)c(C(=O)c2cnc3c(c2)c(-c2ccc(F)cc2)c(C#N)c(=O)n3C)c1 | 12.6% |
| Cc1ccc(C)c(NC(=O)CCC(=O)N/N=C2/CC(=O)CC(C)(C)C2)c1 | 17.4% |
| CCCCNC(=O)C1CC(=O)N(c2ccc(OC)cc2)C1c1ccc(OC)cc1 (stereo not shown) | -7.84% |
| O=C(CSc1nnc(NC(=O)Cc2ccccc2)s1)NCC1CCCO1 (stereo not shown) | 15.8% |
| C/C(=N\O)c1ccc2c3c([nH]c2c1)CCCC3 | 2.61% |
| COc1cccc(-c2coc3c(C)c4oc(=O)c(CC(=O)O)c(C)c4cc23)c1 | 14.4% |
| O=C(NC1CCCCCC1)c1cc(S(=O)(=O)N2CCOCC2)ccc1F | -5.52% |
| COC(=O)c1cc(=O)n2c(-c3ccccc3)csc2n1 | -2.69% |

| Structure (SMILES) | hERG current change (%, negative = inhibition) at 10uM |
| --- | --- |
| CC1(C)OC(C(O)(c2ccccc2)c2ccccc2)[C@@H](C(O)(c2ccccc2)c2ccccc2)O1 (stereo partly shown) | 11.7% |
| Cl.c1coc(Cn2nnnc2CN2CCN(C3CCCCC3)CC2)c1 | -41.4% |
| O=C(NCCCN1CCOCC1)c1ccccc1N1C(=O)[C@@H]2Cc3c([nH]c4ccccc34)C(c3cccc(Cl)c3)N2C1=O (stereo partly shown) | -72.3% |
| Cc1c(C(=O)NC(C)C2CC3CCC2C3)cccc1[N+](=O)[O-] (stereo not shown) | 19.5% |
| COc1ccc(-c2nn(-c3ccccc3)cc2/C=C/C(=O)OCC(=O)Nc2cccc(C#N)c2)cc1 | -3.43% |
| COC(=O)C(O)(c1ccc(NC(=O)NC2CCCCC2)cc1)C(F)(F)F (stereo not shown) | 18.1% |
| Cc1ccc(-c2c(C)n([O-])c3c([n+]2=O)CCCCC3)cc1 | 9.47% |
| COc1ccc(CCC(=O)NCCc2ccc(Cl)cc2)cc1 | 0.298% |
| CCNC(=O)CC1C(=O)N(c2ccccc2)C(=O)N1Cc1ccc(OC)cc1 (stereo not shown) | 12.3% |
| Nc1nonc1-c1noc(N2CCCCC2)n1 | 7.3% |
| COc1ccc2c(c1)c(=O)cc(-c1ccccc1)n2C | 0.0751% |
| O=C(CN1C(=O)NC2(CCCCC2)C1=O)Nc1ccc(Cl)c(S(=O)(=O)N2CCOCC2)c1 | 2.3% |
| O=C(CSc1ccc2ccccc2n1)N/N=C/c1ccccc1O | 17.7% |
| CN1CCCN=C1COC(=O)C(O)(c1ccccc1)C1CCCCC1.Cl (stereo not shown) | -3.38% |
| NS(=O)(=O)c1ccc(NS(=O)(=O)c2ccc(NC(=S)Nc3ccccc3)cc2)cc1 | 9.49% |
| CCOC(=O)c1sc2nc(CC(=O)OC)nc(NCC(=O)OC)c2c1C | -9.05% |
| CCC(C)NS(=O)(=O)c1cc2c3c(c1)CCN3C(=O)CC2 (stereo not shown) | -2.85% |
| CCCn1c(C)c(C(=O)c2cccc3ccccc23)c2ccccc21 | -7.13% |
| CCOC(=O)c1cc2occc2n1Cc1ccc(F)cc1 | 8.07% |
| NC(=O)c1ncc(C(F)(F)F)cc1Oc1cccc(F)c1 | 7.09% |
| O=C(OCC(=O)N1CCN(c2ccccc2)CC1)c1cc(Br)ccc1Cl | -25.3% |
| CCC(C)Nc1nc2c(c(=O)n(C)c(=O)n2C)n1Cc1cccc(C)c1 (stereo not shown) | -20.1% |
